# Among all 420,000 compounds or so, about 64,000 (15%) were called active. Inconclusive results, whose numbers are uncertain, are shown with a selection of clear calls. The call rests on the fitted dose curve; in most records, active means well fitted inhibition curve with a large enough effect; inconclusive means small, poorly fitted or top-dose-only effect; inactive means flat fitted curve, though single readings scatter. No potency is given beside an inconclusive call; the fits are too rough.
# Test: qHTS for Inhibitors of human tyrosyl-DNA phosphodiesterase 1 (TDP1): qHTS in cells in absence of CPT; further: nearly all actives have a fitted effect of over 55% in size
# Conditions: DT40 Tdp1-/- hTDP1 cells, no CPT, ATP luminescence, 48 h; activity change, negative = growth inhibition: at 46.2 µM (top of the series) unless noted
# How it was run: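 A cellular qHTS used chicken DT40 cells lacking endogenous Tdp1 but carrying stably transfected human TDP1. Compounds were applied without camptothecin, and cell growth kinetics were judged by ATP-dependent luminescence after ≥48 hr.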
# On the % scale 0 is the no-effect control and ±100 the full control effect; potency means the concentration at half of the fitted maximal effect; tags describe the fitted curve by direction and shape.
Structure (SMILES),Potency,"activity change, negative = growth inhibition"
Cc1nn(CCCC(=O)Nc2ccccc2C(F)(F)F)c(=O)c2c1sc1ccccc12,"inconclusive [inhibitor, single point]",
CCCCNC(=O)c1onc(CSc2nc3ccccc3[nH]2)c1C(=O)NCCCC,"inconclusive [inhibitor, single point]",
CCOc1cc(C(=O)OCC(=O)c2c[nH]c3ccccc23)ccc1OCC(=O)N1CCOCC1,"inconclusive [inhibitor, single point]",
CCCC(=O)Nc1ccc(C(=O)Nc2ccc([N+](=O)[O-])cc2OC)cc1,,inactive: -28.4%
COc1ccc(CSc2ccc(S(=O)(=O)N3CCCC3)cn2)cc1F,active: 16.4 µM,
COCCCNC(=S)N1CCN(C(c2ccccc2)c2ccccc2)CC1,"inconclusive [inhibitor, single point]",
Cc1cn2c(=O)cc(COc3ccc(NC(=O)c4cccc(F)c4)cc3)nc2s1,,inactive: -8.43%
O=C(Cn1c(=O)n(Cc2ccco2)c(=O)c2oc3ccccc3c21)Nc1ccc(F)cc1F,"inconclusive [inhibitor, single point]",
CN(C)S(=O)(=O)c1cccc(NC(=O)c2ccc(-n3cncn3)c([N+](=O)[O-])c2)c1,,inactive: -12.2%
CCOC(=O)/C(=C/c1ccccc1)NC(=O)c1ccco1,,inactive: 2.43%
COc1ccc(-c2cccc3c2C2CC3CCN2C(=O)OCc2ccccc2)cc1 (configuration not stated),"inconclusive [inhibitor, single point]",
CCC(Sc1nnc(C)n2c1cc1occc12)C(=O)Nc1ccccc1F (configuration not stated),active: 25.9 µM,
COc1ccc(C)cc1Cn1c(S(C)(=O)=O)nc2ccccc21,active: 20.6 µM,
Cc1cc(CO)nn1-c1ccc([N+](=O)[O-])cc1,,inactive: -14%
COc1ccc(/C=C(/NC(=O)c2ccccc2)C(=O)N/N=C/c2ccncc2)c(OC)c1,"inconclusive [inhibitor, single point]",
COc1ccc(CN2CCN(C(=O)c3ccco3)CC2)c(OC)c1OC,,inactive: -1.68%
Cc1nc(-c2cccnc2)sc1C(=O)Nc1ccc(Cl)cc1,"inconclusive [inhibitor, single point]",
Cc1ccc2c(c1)C(SCC(=O)NCCc1ccccc1)CC1(CCCC1)O2 (configuration not stated),"inconclusive [inhibitor, single point]",
O=C1CC2(CCN(C(=O)c3ccc([N+](=O)[O-])cc3)CC2)Oc2ccccc21,"inconclusive [inhibitor, full curve]",
COc1ccc(Nc2nc3ccccc3nc2C)cc1,,inconclusive: -30.9% [inhibitor]
c1ccc(C[C@H]2CN=C(Nc3ccccc3)N2CC2CCCCC2)cc1,"inconclusive [inhibitor, single point]",
COC(=O)C1=C(C)N(Cc2ccccc2)C(=NCc2cc(OC)c(OC)c(OC)c2)N[C@H]1c1ccc(Br)cc1,active: 18.4 µM,
NS(=O)(=O)c1ccc(NC(=O)Nc2ccc(C(F)(F)F)cc2)cc1,active: 18.4 µM,
CCN1CCN(C(c2cccnc2)c2c(NC(=O)c3ccco3)sc(C)c2C)CC1 (configuration not stated),active: 23.1 µM,

Structure (SMILES),Potency,"activity change, negative = growth inhibition"
COc1ccc(-c2nn(C)c(=O)c3ccccc23)cc1NC(=O)Cn1nc(-c2ccccc2)c2ccccc2c1=O,"inconclusive [inhibitor, single point]",
COc1ccc(C(CCNCc2ccc(OC(C)C)cc2)C(C)C)cc1 (configuration not stated),active: 6.51 µM,
CCn1cc(C(=O)NCc2ccccn2)c(=O)c2cc(F)c(N3CCN(C)CC3)cc21,,inactive: -6.33%
C/C(=N\Nc1nc(N2CCCCC2)nc(N2CCOCC2)n1)c1ccccc1O,active: 20.6 µM,
Cc1cc(=O)n2[nH]c(N)c(N=Nc3ccccc3)c2n1,active: 29.1 µM,
CN1CCC(N(C)S(=O)(=O)c2ccc(NC(=O)COc3cccc(Cl)c3)cc2)CC1,"inconclusive [inhibitor, single point]",
Cn1c(=O)n(C)c2cc(NS(=O)(=O)c3ccccc3)c(NCc3ccccc3)cc21,"inconclusive [inhibitor, single point]",
NC1=NC(=O)/C(=C\c2ccc(-c3ccc(Cl)cc3)o2)S1,active: 18.4 µM,
COc1ccccc1CNC(=O)CN1C(=O)CSc2ccc(S(=O)(=O)N3CCCC3)cc21,"inconclusive [inhibitor, single point]",
COC(=O)c1cc2oc3ccccc3c2n1CC(=O)Nc1ccc(OC)c(OC)c1OC,"inconclusive [inhibitor, single point]",
Cc1ccc(-c2noc(CNC(=O)c3ccc(C(C)(C)C)cc3)n2)cc1,"inconclusive [inhibitor, single point]",
CCCCCCCNC(=O)C1(CC2CC(c3cccc(Br)c3)=NO2)CCN(C(=O)OC(C)(C)C)CC1 (configuration not stated),active: 14.6 µM,
CC(C)Oc1ccc(CNC(=O)C2CCN(C(=O)c3sccc3-n3cccc3)CC2)cc1,"inconclusive [inhibitor, single point]",
O=C(CCCCn1c(=O)c2ccccc2n(Cc2ccccc2F)c1=O)NC1CCN(Cc2ccccc2)CC1,active: 16.4 µM,
CCOC(=O)c1c(NC(=O)CSC2=NN3CCCC(=O)N=C3S2)sc2c1CCCCC2,"inconclusive [inhibitor, single point]",
O=C(Nc1ccccc1C(=O)Nc1nnc(C(F)(F)F)s1)c1ccccc1,active: 4.11 µM,
O=C(c1ccc(Br)o1)N1CCN(C23CC4CC(CC(C4)C2)C3)CC1,"inconclusive [inhibitor, single point]",
CC(=O)Nc1cccc(NC(=O)c2cc(-c3cccnc3)nc3ccc(Br)cc23)c1,active: 17.8 µM,
COc1ccc(Cn2c(CCCO)nc3ccccc32)cc1OC,,inactive: 7.16%
COc1cc(/C=C/C(O)=C/C(=O)/C=C/c2ccc(O)cc2)ccc1O,"inconclusive [inhibitor, single point]",
COCc1cc(C)n(CC(=O)Nc2ccc(NC(C)=O)cc2)c(=O)c1C#N,,inactive: 13.3%
CC(C)(C)c1ccc(CSc2ccc(S(=O)(=O)N3CCOCC3)cn2)cc1,"inconclusive [inhibitor, single point]",
CCN(CC)C(=O)Cn1cc(SCC(=O)Nc2cccc(C)c2)c2ccccc21,"inconclusive [inhibitor, single point]",
CCCCN1Cc2c(nc3cc(-c4ccco4)[nH]n3c2=O)C1=O,,inactive: -4.07%

Structure (SMILES),Potency,"activity change, negative = growth inhibition"
C[n+]1ccn(CC(=O)c2cccs2)c1,,inactive: -10.4%
CSc1ncnc2c1ncn2CCCNCC(C)c1ccccc1 (configuration not stated),,inactive: -10.2%
Cc1cc(C)cc(NC(=O)c2nnn(Cc3cc(C)ccc3C)c2N)c1,"inconclusive [inhibitor, single point]",
COC(=O)C(C)Sc1ncnc2c1nnn2-c1ccc(F)cc1 (configuration not stated),"inconclusive [inhibitor, single point]",
O=C(c1cc(S(=O)(=O)N2CCOCC2)c(Cl)cc1Cl)N1CCCC1,,inactive: 0.503%
CN(C)c1ccc(C(=O)N2CCCC(CCC(=O)N3CCN(c4ccccn4)CC3)C2)cc1 (configuration not stated),"inconclusive [inhibitor, single point]",
Cc1cccc(NC(=O)c2cnn3ccccc23)c1C,active: 2.06 µM,
COc1ccc(NC(=O)CN(C)C(=O)c2cccc(S(=O)(=O)N3CC4(C)CC3CC(C)(C)C4)c2)cc1 (configuration not stated),"inconclusive [inhibitor, partial curve]",
COC(=O)C1=C(C)NC(=O)CC1c1ccccc1 (configuration not stated),,inactive: -3.91%
COc1cccc(C(=O)O/N=C(\N)c2ccc([N+](=O)[O-])cc2)c1OC,,inconclusive: -30.4% [inhibitor]
CC(C)(C)n1nc2c(c1NC(=O)Cc1ccc(F)cc1)CSC2,"inconclusive [inhibitor, single point]",
COc1ccc(N2CCN(c3cc(C)nc4nc(-c5ccc(C)cc5)nn34)CC2)cc1,,inactive: -2.72%
Cc1ccc(CNC(=O)COC(=O)[C@@H]2CC(O)CN2S(=O)(=O)c2ccc3c(c2)OCCO3)cc1 (some centres not stated),,inconclusive: -16.1% [inhibitor]
O=c1[nH]cccc1-c1nc2ccccc2n1Cc1cccc(Cl)c1,"inconclusive [inhibitor, partial curve]",
COc1cc2c(cc1OC)/C(=C/c1ccc(N(C)C)cc1)C=C2,"inconclusive [inhibitor, partial curve, poor fit]",
O=C(Nc1ccc(F)cc1)C(Cc1ccccc1)n1cccc1 (configuration not stated),"inconclusive [inhibitor, single point]",
N#CCSc1nc2c(cc1C#N)CCCC2,"inconclusive [inhibitor, single point]",
Cc1cccc(C(=O)N2CCc3cc(CNC(=O)CCc4ccccc4)ccc32)c1,active: 13 µM,
O=C(O)c1cnn(-c2nc(-c3ccc(Br)cc3)cs2)c1C(F)(F)F,"inconclusive [inhibitor, partial curve]",
COc1cc(C(O)c2nc(-c3cccc(C(F)(F)F)c3)cs2)ccc1F (configuration not stated),"inconclusive [inhibitor, single point]",
Cc1ccc(-c2nc3ccccc3n2C)o1,"inconclusive [inhibitor, single point]",
O=C(COC(=O)c1cc(Cl)nc(Cl)c1)NC1CCCCCC1,,inactive: 0.73%
CN(C)CC/C=C1\c2ccccc2Sc2cc(F)c(Cl)cc21,active: 16.4 µM,
COc1ccc(N(C(=O)Cc2cccs2)C(C(=O)NC2CCCC2)c2ccncc2)cc1 (configuration not stated),"inconclusive [inhibitor, single point]",

# Reference: PubChem BioAssay AID686978 (National Center for Advancing Translational Sciences (NCATS), 2013)
